# Test results taken from publication PMC12136788.
# The list shows a part of the results.
# B1: chr10:119072878:119073036:-|CDS|ENSG00000107581|unk|total|mutant (ssRNA)
# RNA: GGGAGUUCUACAGUCCGACGAUCCUUUUAACUCCAUGGGUUAAAUUCCUGUGGGAGUCUUACAGGCAGUGUUUGGACCUUCUCCGAAACAAUUCCCGAGCCGAGCGCCUGUACCAUGAUAUUGCCCAGCAAGGUAAGAUGAGACAACAGAGGAUUGAGCAUCA
# B2: chr17:48058596:48058697:+|CDS|ENSG00000082641|msi1|FALSE|unique (ssRNA)
# RNA: GGGAGUUCUACAGUCCGACGAUCCAAUGGCACAGCCAAUGACACAGCAGGCCCAGAGCUGCCUGACCCUUUGGGGGGUCUGUUAGAUGAAGCUAUGUUGGAUGAGAUCAGCCUUAUGGACCUGGCCAUUGAAGAAGGCUUUAACAACAGAGGAUUGAGCAUCA
# B3: chr9:21140631:21140982:-|three_prime_utr|ENSG00000177047|control|control|control (ssRNA)
# RNA: GGGAGUUCUACAGUCCGACGAUCGUGACUCUGGUCAAUUCAAAAGACUCUUAUUUCGGCUUUAAUCACAGAAUUGACUGAAUUAGUUCUGCAAAUACUUUGUCGGUAUAUUAAGCCAGUAUAUGUUAAAAAGACUUAGGUUCACAACAGAGGAUUGAGCAUCA
# B4: ENSG00000107863:be:win_951|CDS|ENSG00000107863|bound_else_gene|NA|bound_elsewhere_windowed (ssRNA)
# RNA: GGGAGUUCUACAGUCCGACGAUCCACAUCACCACCAUUAUCAAUUCCCACCACUCAUCUAAUUCAUCAGCCUGCAGGCUCCAGAUCACUGGAACCUUCUGGAAUUUUACUUAAGUCUGGAAAUUACAGUGGACAUUCUGAUGGCAACAGAGGAUUGAGCAUCA
# B5: chr15:77046177:77046188:-|3pUTR|ENSG00000140391|msi1_unk|FALSE|overlapping (ssRNA)
# RNA: GGGAGUUCUACAGUCCGACGAUCUUAAUCAAAGUUGGCUUUAUAGGAGGAGUAUAAUGUAUGCACUACUGUUUUAAAAGAAUUAGUGUGAGUGUGUUUUUGUAUGAAUGAGCCCAUUCAUGGUAAGUCUUAAGCUUGUUGGAACAACAGAGGAUUGAGCAUCA
# B6: chr11:1889147:1890584:-|CDS|ENSG00000283787|control|control|control (ssRNA)
# RNA: GGGAGUUCUACAGUCCGACGAUCGCCACCCGGCUUCCAGGCCUCAGUGCCCAGAGAGGCUAGUGCCAGGGUUGUGGUGCCCAUAGCCCCGACCUGCCGCUCGCUGGAGUCCUCACCGCACAGCCUGGUCCCCAUGGGCCCUGGCAACAGAGGAUUGAGCAUCA
# B7: chr3:142163631:142163732:-|3pUTR|ENSG00000175066|unk|total|mutant (ssRNA)
# RNA: GGGAGUUCUACAGUCCGACGAUCCCCAAAGUGCUGGGAUUGCAGCCGUGAACCACUGCACCCAGCCAAUGGGUGUAAUUUCACCGGAAAUAAUUCUUUUUGUCAGAAUGUACUGAAUUGUAAUAUUAAUACCUGAAAAUUUGUCAACAGAGGAUUGAGCAUCA
# B8: chr20:187888:188118:-|CDS|ENSG00000185982|control|control|control (ssRNA)
# RNA: GGGAGUUCUACAGUCCGACGAUCCUUCAAUAAAGUAACAGGCUAUUGCAGGAAGAAAUGCAAGGUAGGAGAAAGAUAUGAAAUAGGAUGUCUAAGUGGGAAAUUAUGUUGUGCUAAUGAUGAAGAAGAGAAAAAACAUGUGUCCAACAGAGGAUUGAGCAUCA
# B9: chr2:19992051:19993110:-|three_prime_utr|ENSG00000132031|control|control|control (ssRNA)
# RNA: GGGAGUUCUACAGUCCGACGAUCAGAAUCAGCAUGAUUCUUCCAAGGAAAUACAUAUGCAGAUACUUAUUAAGAGCAAACUUUAGUGUCUCUAAGUUAUGACUGUGAAAUGAUUGGUAGGAAAUAGAAUGAAAAGUUUAGUGUCAACAGAGGAUUGAGCAUCA
# B10: ENSG00000136631:stop:overlap|stop_codon|ENSG00000136631|stop_codon|NA|stop_codon (ssRNA)
# RNA: GGGAGUUCUACAGUCCGACGAUCACAAAGGUGUUGGAGAGCAGCUUUGGGUUCUGUGCUGGUUGUUAGAACUCAUCUCCAGGUAGCCCACGGAUACGUGGUUGGCACAGACACAAGACUCCCAGAGUUGUCCUAACAAUAAGUCAACAGAGGAUUGAGCAUCA
# B11: ENSG00000107863:be:win_4351|CDS|ENSG00000107863|bound_else_gene|NA|bound_elsewhere_windowed (ssRNA)
# RNA: GGGAGUUCUACAGUCCGACGAUCCACAAUGAUACUAAAGAGGAGUCCAAAAAAGAAAGUGAGACACUGGGCAGAAAACAGAAGAUCAUCAUUGCCAAAGAAAACAGCACUAGGAAAGACCCCAGCACGACAAAAGAUGAAAAGCAACAGAGGAUUGAGCAUCA
# B12: chr6:350928:351029:+|3pUTR|ENSG00000112679|unk|FALSE|unique (ssRNA)
# RNA: GGGAGUUCUACAGUCCGACGAUCCCACAGAGUUUAGGCUGGUGCUGCCAAAAAGAAAAGCAACAUAGAGUUUAAGUAUCCAGUAGUGAUUUGUAAACUUGUUUUUCAUUUGAAGCUGAAUAUAUACGUAGUCAUGUUUAUGUUCAACAGAGGAUUGAGCAUCA
# B13: ENSG00000198589:be:win_1201|CDS|ENSG00000198589|bound_else_gene|NA|bound_elsewhere_windowed (ssRNA)
# RNA: GGGAGUUCUACAGUCCGACGAUCGCUGAGCAUCACAAACUUUUAUUGUACGAUGGGAAACUCUCUAGUGCCAUUGCAUUCACGUACAAUCCACGGGCUACAGAUGCCCAGCUUUGUCUUGAAUCAUCUCCUAAGGACAACCCUCAACAGAGGAUUGAGCAUCA
# B14: chr14:92797766:92797867:+|CDS|ENSG00000066455|msi1|FALSE|unique (ssRNA)
# RNA: GGGAGUUCUACAGUCCGACGAUCCAUUUUGUGCGAAGAAAAAAGUCAGAACCUGAUGAUGAGCUGCUGUUUGAUUUUCUUAAUAGUUCACAGAAGGAGCCUACCGGGAGGGUGGAAAUCAGAAAGGAAAAAGGCAAGACACCUCAACAGAGGAUUGAGCAUCA
# B15: chr8:38210266:38210373:+|CDS|ENSG00000156735|unk|FALSE|unique (ssRNA)
# RNA: GGGAGUUCUACAGUCCGACGAUCAAAAAUCAUACAUGUGCUGGAGAAGGUCCAGUAUCUUGAACAAGAAGUAGAAGAAUUUGUAGGAAAAAAGACAGACAAAGCAUACUGGCUUCUGGAAGAAAUGCUAACCAAGGAACUUUUCAACAGAGGAUUGAGCAUCA
# B16: ENSG00000107863:be:win_601|CDS|ENSG00000107863|bound_else_gene|NA|bound_elsewhere_windowed (ssRNA)
# RNA: GGGAGUUCUACAGUCCGACGAUCCCAAUCUGCUAUCCCUGGCUGCCAUCUGCCCCAUCAGCCAUGGCACAGCCAGUUGAAAUAUCUCCUCCUGACUCAUCAUUGAGCAAACAGCAAACCAGUACACCAGUACUGACACAACCUCAACAGAGGAUUGAGCAUCA
# B17: chr12:107752058:107752159:-|CDS|ENSG00000110851|unk|FALSE|unique (ssRNA)
# RNA: GGGAGUUCUACAGUCCGACGAUCUAACUCUAUAAAUGUUGAUGGUAAUACAGCAUUAUCUAUCACCAAUAACCCUUCAGCACUAGAUCCCUAUCAGUCCAAUGGAAAUGUUGGAUUAGAACCAGGCAUUGUUUCAAUAGACUCCAACAGAGGAUUGAGCAUCA
# B18: chr12:104348774:104348848:+|3pUTR|ENSG00000198431|msi1_unk|FALSE|overlapping (ssRNA)
# RNA: GGGAGUUCUACAGUCCGACGAUCCGUUGUCAAGUUUUCUAGGGUUGAAUUUUUUUCUUUUUUCUCCAUGGUGUUAAUGAUAUUAGAGAUGAAAAACGUUAGCAGUUGAUUUUUGUCCAAAAGCAAGUCAUGGCUAGAGUAUCCCAACAGAGGAUUGAGCAUCA
# B19: chr11:75572625:75572772:+|3pUTR|ENSG00000149257|msi1|total|mutant (ssRNA)
# RNA: GGGAGUUCUACAGUCCGACGAUCUCUGGCGUUGUGGGGAUGAACUUUUUGUUUUGUUUCUUCCUUUUUCCGUUCUUCAAAGACCGGGAGGGAAGGGGGAACAUGAGCCUUUGUUGCUAUCAAUCCAAGAACUUAUUUGUACAUCAACAGAGGAUUGAGCAUCA
# B20: ENSG00000198774:stop:overlap|stop_codon|ENSG00000198774|stop_codon|NA|stop_codon (ssRNA)
# RNA: GGGAGUUCUACAGUCCGACGAUCGUUCUAACCACAGUCAGGACUCCGAAACAACAGUAGGAGAUGUGGUGCUGUUGUCAACAUAGUUCCAAUGGCUCCUUUCUGACCUGCUUUCAUGUUUUAAUGUUUGUUUAAUUUAAUAGGCAACAGAGGAUUGAGCAUCA
# B21: chr5:132541444:132541810:-|three_prime_utr|ENSG00000113525|control|control|control (ssRNA)
# RNA: GGGAGUUCUACAGUCCGACGAUCAAAUUGAUAUACUUUUUUCUUAUUUAACUUAACAUUCUGUAAAAUGUCUGUUAACUUAAUAGUAUUUAUGAAAUGGUUAAGAAUUUGGUAAAUUAGUAUUUAUUUAAUGUUAUGUUGUGUCAACAGAGGAUUGAGCAUCA
# B22: chr8:23842113:23842214:-|3pUTR|ENSG00000159167|msi1|total|mutant (ssRNA)
# RNA: GGGAGUUCUACAGUCCGACGAUCACUUCCGACAUUUUUGUGCCAUUAUAUUUGCAUUAUGUAUUUAUAAUUUAAAUGAUAUUCCGGUUUUUGGCUGAGUACUGGAAUAAACAGUGAGCAUAUCUGGUAUAUGUCAUUAUUUAUCAACAGAGGAUUGAGCAUCA
# Molecular target: MSI1 full-length (mouse, UniProt Q61474 1-362)
# Assay: nsRBNS (natural sequence RNA bind-n-seq); RBNS binding buffer (assumed for nsRBNS): 25 mM Tris pH 7.5, 150 mM KCl, 3 mM MgCl2, 0.01% Triton X-100, 500 ug/ml BSA, 20 U/ml SUPERase-In, 4 C; UNK is unkempt and MSI1 is Musashi-1; names of the RNAs are library labels; protein concentration not given here; high values mean tight binding
# Sequence of UniProt Q61474 (Q61474 whole entry): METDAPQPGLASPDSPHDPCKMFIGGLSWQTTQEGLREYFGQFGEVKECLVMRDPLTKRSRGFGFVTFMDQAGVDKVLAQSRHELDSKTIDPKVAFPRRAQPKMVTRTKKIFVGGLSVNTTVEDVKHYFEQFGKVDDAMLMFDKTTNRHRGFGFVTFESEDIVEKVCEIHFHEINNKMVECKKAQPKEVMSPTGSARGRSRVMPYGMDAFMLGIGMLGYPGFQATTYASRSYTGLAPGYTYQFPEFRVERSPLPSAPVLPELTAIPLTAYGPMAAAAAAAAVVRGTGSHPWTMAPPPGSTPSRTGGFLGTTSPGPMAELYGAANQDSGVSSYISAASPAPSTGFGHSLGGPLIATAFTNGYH
row,Binder,binding signal [enrichment R]
1,B1,0.197
2,B2,0.367
3,B3,0.985
4,B4,0.418
5,B5,1.85
6,B6,0.566
7,B7,0.524
8,B8,1.31
9,B9,4.97
10,B10,1.19
11,B11,0.84
12,B12,4.68
13,B13,0.29
14,B14,0.533
15,B15,1.57
16,B16,0.384
17,B17,0.566
18,B18,2.02
19,B19,0.28
20,B20,1.42
21,B21,2.88
22,B22,0.621
